From paper PMC12136788 come the findings set out here.

The other results are listed elsewhere or left out.

First the molecules themselves.
T1: UNK ZnF1-3 (human, UniProt Q9C0B0 31-174)
T1 sequence: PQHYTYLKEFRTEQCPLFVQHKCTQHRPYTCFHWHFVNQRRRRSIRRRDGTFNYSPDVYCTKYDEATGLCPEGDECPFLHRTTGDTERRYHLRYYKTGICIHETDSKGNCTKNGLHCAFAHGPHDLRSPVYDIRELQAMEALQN

B1: chr6:40197388:40197389:+_ENSMUSG00000057716_ENSMUST00000061740|mus_mus|mus_mus_mus_hu_False|38_58 (ssRNA)
RNA: GGGAGUUCUACAGUCCGACGAUCGAGACACUGGGGUGGAUUUAUUCCACCUCUGUUUGGGUGCUAGCCACUAAGACAGCUAUUUUGGGAUUCAUGGCCUUGAAGAUCAAGAGGGAAAGGAAGAGGAUGGAAAGAGUCAAGAGUCAACAGAGGAUUGAGCAUCA
B2: chr6:150114741:150114742:+_ENSG00000120265_ENST00000367380|hu_hu|motif|central (ssRNA)
RNA: GGGAGUUCUACAGUCCGACGAUCCCCUGAAGACAGAAGUGUUGGAUCGUCCUUCCUGACAUUAUUUACUGAGUCAUCGGCGGGCUCUUUAAUGUGAUCAAUUCCUAUGACUUUUCCAGUACAUCCAACCAUACGUGCAAAACACAACAGAGGAUUGAGCAUCA
B3: 108516817_108516937_3276_CDS_ENSMUSG00000032846_ENSMUST00000105097|mouse|control|control (ssRNA)
RNA: GGGAGUUCUACAGUCCGACGAUCGGUGGUCAGGGUGCACCUGCGCAAAAUGUCCGACAGUACCGUUGCGCAUUUGACGCUCUUAACCACCAGAGGUAUUAUAGCUGCUAGCUCAUUCUUACCGAGGGAGUGACUAAGCGCACACAACAGAGGAUUGAGCAUCA
B4: chr6:136600977:136600978:-_ENSG00000029363_ENST00000527536|hu_hu|motif|central (ssRNA)
RNA: GGGAGUUCUACAGUCCGACGAUCCGAGACCUAGAACUGUAUCGCUUCUUUCUAGAAUGAGAUCUUGAUCUUGAUCGAGAACGGGACUGUGAUCUAGACUUUGACCUUGAAGAAUGUGAUCUAGAAUUGGAGCGACCCAUUUCUCAACAGAGGAUUGAGCAUCA
B5: chr3:176740097:176740098:-_ENSG00000177565_ENST00000430069|hu_mus|hu_hu_hu_mus_True|1_8 (ssRNA)
RNA: GGGAGUUCUACAGUCCGACGAUCUGUUUUGUAUACCACAAAAGGAGGCACUUUCAGUAUCUGCAAAAGGUGUUUAGUCCUAAAACAUACUCACCUAGAGGAUAACUCAGGAAAACAAUCUGUUACACUAGUAUCUAUUAGGAACAACAGAGGAUUGAGCAUCA
B6: chr7:108213676:108213677:+_ENSG00000128590_ENST00000249356|hu_hu|motif|central (ssRNA)
RNA: GGGAGUUCUACAGUCCGACGAUCUCCAUGAAAUCUAUUUUCAGUCUGUACUGUAUGCUGAUUGGUAGAGUCAAAACCACGGAAAGAAAACAUUUUCUCCAUAUCUUCAAACAUGUCAUCAAAUAAUCCACCUCCAAAAGAAAACAACAGAGGAUUGAGCAUCA
B7: 56480571_56481790_460_3pUTR_ENSG00000167005_ENST00000300291|human|control|control (ssRNA)
RNA: GGGAGUUCUACAGUCCGACGAUCUCUUCUCCUGGGUUAAGUUCACCACCAGGUAGUUUGAAGAAAGUUGUUCCCAGCUGCAGCAGUAACACAUGGGGUAGCCGGUGCUCAUGUACAAUCAGAACCCCUUCUACAGUCCUCCUCCAACAGAGGAUUGAGCAUCA
B8: chr12:39756943:39756944:-_ENSG00000139116_ENST00000544797|hu_mus|hu_hu_hu_mus_False|78_98 (ssRNA)
RNA: GGGAGUUCUACAGUCCGACGAUCGGUUUGGCUGUUACCCCCGAGGGAAUCCUGCAAUAGUCUUGUUAGCUUAGAGUCUCUGUAAGGGACAUGGGUGGCUCUCUUGCUCUUGUCCCCCAAGGCGCUGAUUACAUUCCCAAGAGCCAACAGAGGAUUGAGCAUCA
B9: chr11:98018192:98018193:-_ENSMUSG00000018160_ENSMUST00000107545|mus_mus|motif|central (ssRNA)
RNA: GGGAGUUCUACAGUCCGACGAUCUCCUGAACUGCCUGGGGAUUUGGACCCACCCGUGCUGGUAGGUGGGGUGAAAGGUCGGUUAGAAGAACUGUGAGAUGGGGACUUCCCCUCAGUGUCUGCCUUCUUCCGCUUUGGAGGCUUCAACAGAGGAUUGAGCAUCA
B10: chrX:101157612:101157613:-_ENSMUSG00000056537_ENSMUST00000070705|mus_hu|FALSE|FALSE (ssRNA)
RNA: GGGAGUUCUACAGUCCGACGAUCUAUCAGUAACAGUGAUGCUACCAAUUUAACUGGUACGGAAAUCAGAUUUUUAGGUCCUAUAACGUGGCUUUUAAAAUAUUUCCUUUUAUUCUGGAACAAAAACUGGAGAAAGGACAAUGACAACAGAGGAUUGAGCAUCA
B11: chrX:131338992:131338993:-_ENSMUSG00000033436_ENSMUST00000035559|mus_mus|motif|central (ssRNA)
RNA: GGGAGUUCUACAGUCCGACGAUCUAUCACAGAUAACAUCACUCUGAAUUAUUCAAACGUGGCAUCUGAAUAAUUCCUGUACGGCACACACAAGUAGAAAAACAAUAGUGUCUCACUGUUAAUGCUUCCCGAGUGUAAAACCGACAACAGAGGAUUGAGCAUCA
B12: chrX:71549762:71549763:+_ENSMUSG00000019087_ENSMUST00000019231|mus_mus|mus_mus_mus_hu_False|58_108 (ssRNA)
RNA: GGGAGUUCUACAGUCCGACGAUCAAAGUGUACCACUUCUUAUUGUUAGCACAACAUCACCAGAAAACGAUAACGACAGCUAAGCUGGACAGACAGUUAAGUAGUACUUCCACACUCCCAAACUCAGGGAGCCCUAUAACCUUACAACAGAGGAUUGAGCAUCA
B13: chr2:179883191:179883192:+_ENSMUSG00000039050_ENSMUST00000040668|mus_mus|motif|central (ssRNA)
RNA: GGGAGUUCUACAGUCCGACGAUCGUAGAUGGAACCGUGGAACCUGAAGUCUUGAUUGAGACCUUCUGAAUAAAAUGCGCGGAUAGGAGGGUGGUGACUGACCUGCUCAGAUAUAAAUCUGAACCCUAAGUCUUCCCUGAUCAACAACAGAGGAUUGAGCAUCA
B14: 31070288_31070408_2187_3pUTR_ENSMUSG00000000194_ENSMUST00000056433|mouse|control|control (ssRNA)
RNA: GGGAGUUCUACAGUCCGACGAUCAAAGAAUUUCAUUCAUUUCUGUGGUUCUUGUCCCCAAAGGCUGACAAUCCCUUUCUCCUAUGCCCUUGGUAGAUAUCUGUCUAGUUCCCAAAGUAAAUCCUUCUCCCCCACCCUGGUGCUCAACAGAGGAUUGAGCAUCA
B15: 35719413_35722846_1177_CDS_ENSMUSG00000022848_ENSMUST00000023554|mouse|control|control (ssRNA)
RNA: GGGAGUUCUACAGUCCGACGAUCGUGGGUGAUGCUGUUUAGGCAGGUCAGGGUGAACCACGUGGACGACAGGGUAGCCCCAGAAAACAGGAGGAGCAGGAUCAGUUUCAGCAUGCCCCGGAUAAAAUCCGCAAACCUUGCCAUCAACAGAGGAUUGAGCAUCA
B16: chr11:87793471:87793472:-_ENSMUSG00000020483_ENSMUST00000020775|mus_mus|mus_mus_mus_hu_False|58_108 (ssRNA)
RNA: GGGAGUUCUACAGUCCGACGAUCUGGGGGCUGGGGAAAAAGAAUAAGCUGGAUCCCCCACCCCCCCACAUUGUCAACCCUAUGCGAGAGUUUUGAAGGCGACUCAUGAAAAUCAGCAGCUCAAACGGCAAUGACCACCCCACCCAACAGAGGAUUGAGCAUCA
B17: 127786347_127786837_1303_CDS_ENSG00000058262_ENST00000243253|human|control|control (ssRNA)
RNA: GGGAGUUCUACAGUCCGACGAUCCUGCUUUGCAACAUCUUUGGCAGAGGAACCUGAGACCUCAAUCCACGUUUUGGAGAAGAAUGCACAGGAGCCCAGCAUGAACACUAUGUAUACAACUGCAUGGACCGGGUCUUCUAACACCAACAGAGGAUUGAGCAUCA
B18: chr1:185278638:185278639:-_ENSG00000116679_ENST00000392007|hu_mus|FALSE|FALSE (ssRNA)
RNA: GGGAGUUCUACAGUCCGACGAUCUAAAAUUUUCAUCUUCAAACAUCAAAUAUCCAUUGGGAAUCAUUUUUCCUUAUAAAUUUGGCAACAAUUACUGAAGAGAAAUGUGUCACUGAGAACGCAAAUGAUCCAAAGACAAAGAAGCAACAGAGGAUUGAGCAUCA
B19: chr3:150289932:150289933:+_ENSG00000144895_ENST00000460851|hu_hu|hu_hu_hu_mus_False|78_78 (ssRNA)
RNA: GGGAGUUCUACAGUCCGACGAUCCUUGUAGUUUUUAACAUCCCAUACUUCCAUUUGUCCCCUCAGAUUUCCAAAUCCAGCCAGCACUAAUAUAUGUCCAUGAGGGCUAUAGAAGGCUGCGUUGCGAGGACCAGUCCCAAAGUCCAACAGAGGAUUGAGCAUCA
B20: chr1:225611761:225611762:-_ENSG00000143815_ENST00000272163|hu_mus|hu_hu_hu_mus_True|28_88 (ssRNA)
RNA: GGGAGUUCUACAGUCCGACGAUCCCAGGCCAUCGGCCUCUGACCACUUCACCAUCGACAAACUUCCUACUUGGCAUUUUCUAAAAUUAGUCUGGCCGCGCUCCGGCCGGUGACACGGCCACUCCAGGACAGUCACCAGCAGCCCAACAGAGGAUUGAGCAUCA
B21: chr1:60041781:60041782:+_ENSMUSG00000041040_ENSMUST00000036540|mus_hu|mus_mus_mus_hu_False|18_38 (ssRNA)
RNA: GGGAGUUCUACAGUCCGACGAUCAAGUUUACAAUAGUAAAGUAAAUGCAGUAGUGGCAAAUUUUCUUUUAUUUUCCUUCACAAAAGAAAAUCUUUAGAUCUCAGUUCUAGUCUUGGCAGAGAAAGCAGCUAUAAAUUCUGACUCAACAGAGGAUUGAGCAUCA
B22: chr4:71691144:71691145:-_ENSG00000132463_ENST00000545193|hu_hu|FALSE|FALSE (ssRNA)
RNA: GGGAGUUCUACAGUCCGACGAUCGGCCUUCCCACUGGAGCUGUAUUCCAUGGUGAUUCUAACAGGCUUGAGUGGAGCAAAAAAGUUUAUAAUGUCUUGGGCAUUGGCUUGGAAAGGUAAUCCUCUCAUGUGGACAAAAUGCAGCAACAGAGGAUUGAGCAUCA

For this test, the target named is T1, UNK ZnF1-3. Briefly: nsRBNS (natural sequence RNA bind-n-seq); RBNS binding buffer (assumed for nsRBNS): 25 mM Tris pH 7.5, 150 mM KCl, 3 mM MgCl2, 0.01% Triton X-100, 500 ug/ml BSA, 20 U/ml SUPERase-In, 4 C; UNK is unkempt and MSI1 is Musashi-1; names of the RNAs are library labels; protein concentration not given here; high values mean tight binding.
As to B1, the binding signal worked out at 1.37 enrichment R.
The figure for B2 is 0.864 enrichment R.
For the molecule B3, the binding signal was 0.716 enrichment R.
In turn, B4 gave a binding signal of 0.372 enrichment R.
B5 had a binding signal of 0.76 enrichment R.
The figure for B6 is 1.23 enrichment R.
The figure for B7 is 1.04 enrichment R; for B8 it is 0.831 enrichment R.
The figure for B9 is 0.975 enrichment R.
The molecule B10 returned a binding signal of 0.86 enrichment R.
In turn, B11 displayed a binding signal of 0.704 enrichment R.
The figure for B12 is 1.05 enrichment R; for B13 it is 1.22 enrichment R; for B14 it is 0.776 enrichment R.
The figure for B15 is 1.23 enrichment R; for B16 it is 1.44 enrichment R; for B17 it is 1.45 enrichment R.
Under B18 stands 1.18 enrichment R; under B19, 1.1 enrichment R; under B20, 0.973 enrichment R.
For B21, the binding signal was found to be 0.705 enrichment R.
Under B22 stands 1.45 enrichment R.
